The whole screen tested about 110,000 compounds, of which about 230 (0.21%) showed an effect of 50% or more. The list shows a part of the results.
What follows are compounds tested against DPAP1 (Plasmodium falciparum, UniProt Q8IIJ9) (assay: primary screen, percent inhibition; read by cleavage of a fluorogenic dipeptide substrate; higher = more effect of the substance).
Design: species or system P. falciparum D10 trophozoite lysates; single well
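Also: 30 min substrate incubation versus DMSO and 10 µM JCP410 controls.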

Sequence of DPAP1 (Q8IIJ9 whole entry, looked up): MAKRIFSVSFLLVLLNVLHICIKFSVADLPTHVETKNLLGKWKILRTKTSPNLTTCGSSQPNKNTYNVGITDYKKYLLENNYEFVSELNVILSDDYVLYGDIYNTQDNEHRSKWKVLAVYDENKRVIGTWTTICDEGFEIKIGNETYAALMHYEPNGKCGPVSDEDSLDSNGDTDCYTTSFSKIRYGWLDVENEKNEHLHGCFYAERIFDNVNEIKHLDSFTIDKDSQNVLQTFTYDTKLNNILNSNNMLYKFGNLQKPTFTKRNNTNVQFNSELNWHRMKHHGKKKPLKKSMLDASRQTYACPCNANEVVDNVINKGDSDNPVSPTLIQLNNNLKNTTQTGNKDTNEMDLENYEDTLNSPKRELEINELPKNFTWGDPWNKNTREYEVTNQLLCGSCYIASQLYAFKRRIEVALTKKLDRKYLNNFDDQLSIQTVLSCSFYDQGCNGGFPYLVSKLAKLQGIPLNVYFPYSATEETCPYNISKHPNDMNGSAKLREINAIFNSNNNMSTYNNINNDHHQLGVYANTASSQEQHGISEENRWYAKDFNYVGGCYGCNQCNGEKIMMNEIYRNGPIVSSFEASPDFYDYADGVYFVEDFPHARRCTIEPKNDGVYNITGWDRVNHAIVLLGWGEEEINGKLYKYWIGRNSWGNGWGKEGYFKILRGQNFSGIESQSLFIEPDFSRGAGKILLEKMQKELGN

First: COc1cccc(-n2cnc3cccc(N)c32)c1
Second: O=S(=O)(c1cccc2nonc12)N1CCN(c2cccc(Cl)c2)CC1
The “% Inhibition @ 10 uM” value of the first is lower: -13.3% for the first, -3.69% for the second.

First: CC(C)C(NC(=O)C1CCC(C(C)(C)C)CC1)C(=O)NCCCN1CCCCC1 (stereo not drawn)
Second: NC(=O)c1c(NC(=O)C2CC2)sc2c1CCCCC2
The “% Inhibition @ 10 uM” value of the first is lower: -5.67% for the first, 50.4% for the second.

First: C#CCN1C(=O)S/C(=C\c2ccc(OC)c(C)c2)C1=O
Second: CN1C(=O)C(=Cc2ccc(OCC(=O)O)c(Cl)c2)C(=O)N(C)C1=O
The “% Inhibition @ 10 uM” value of the first is higher: 0.795% for the first, -4.7% for the second.

Compared with COc1cc2c(cc1OC)C1(CCCC1)CNC2C (stereo not drawn), COc1cc(S(=O)(=O)N2CCOCC2)c(OC)c2c(C)cc(O)nc12 is higher in “% Inhibition @ 10 uM” value: -0.902% for the first, 3.47% for the second.

Compared with CC(=O)N1CCN(c2ccc([N+](=O)[O-])c(N)c2)CC1, CCOC(=O)N1CCN(C(=O)c2cc(-c3ccncc3)nc3ccccc23)CC1 is higher in “% Inhibition @ 10 uM” value: -2.62% for the first, -2.26% for the second.

Compared with Cc1ccc(OCC(O)CN2CCN(c3ccccc3F)CC2)cc1C (stereo not drawn), Cn1c(=O)c2ccccc2n2c(CCC(=O)N3CCN(Cc4ccccc4)CC3)nnc12 is higher in “% Inhibition @ 10 uM” value: 2.53% for the first, 2.6% for the second.

Compared with CCN(CC)S(=O)(=O)c1ccc(S(=O)(=O)N2CCOCC2)cc1, Cc1ccc(OCC(=O)Nc2ccc(S(=O)(=O)N3CCOCC3)cc2)c(C)c1 is lower in “% Inhibition @ 10 uM” value: -3.9% for the first, -5.14% for the second.

First: COCCCNC(=O)c1nnc(O)c2ccccc12
Second: CCOCCCNC(=O)CS(=O)Cc1nc(-c2ccccc2C)oc1C (stereo not drawn)
The “% Inhibition @ 10 uM” value of the first is higher: 3.54% for the first, 0.689% for the second.

Going from Cc1nc2ccc(S(=O)(=O)NC(C(=O)NC(C)c3ccccc3)C(C)C)cc2s1 (stereo not drawn) to CCC(C(=O)NCCCN(CC)Cc1ccccc1)n1nc(C)c2sc3ccccc3c2c1=O (stereo not drawn), the “% Inhibition @ 10 uM” value falls from 1.62% to -0.229%.

Compared with CCCNC(=O)NC1C(NC(=O)NCCC)N(C)C(=O)N1C (stereo not drawn), CCCn1c(=O)c2sccc2n2c(CCCC(=O)NC3CCCCC3C)nnc12 (stereo not drawn) is higher in “% Inhibition @ 10 uM” value: -7.58% for the first, -3.88% for the second.

Compared with Cc1ccc(-c2cn3nc(N4CCC(C(=O)NCc5ccccc5Cl)CC4)sc3n2)cc1, CC(=O)c1c(-c2ccc(C)cc2)nc2n(CCN3CCCCC3)c3ccccc3n12 is lower in “% Inhibition @ 10 uM” value: 1.21% for the first, 0.345% for the second.

Compared with Cc1ccc(NC(=O)c2ccc(C(=O)Nc3ccc(C)c(Cl)c3)cc2)cc1Cl, O=C(Nc1ccc(Cl)cc1)Nc1ccc(Cl)c(C(=O)O)c1 is lower in “% Inhibition @ 10 uM” value: -1.22% for the first, -3.65% for the second.

Going from O=C(COC(=O)c1cccs1)c1ccc2c(c1)OCCO2 to O=S(=O)(c1ccccc1)c1cnc2cc3c(cc2c1O)OCCO3, the “% Inhibition @ 10 uM” value falls from 4.55% to -0.0115%.

First: CC(=O)c1ccc(NC(=O)c2cc(C)on2)cc1
Second: COc1ccc(-c2nonc2NC(=O)c2ccc(OC)c(Cl)c2)cc1
The “% Inhibition @ 10 uM” value of the first is lower: -2.09% for the first, 9.78% for the second.

Compared with Cc1ccc(NC(=O)C(=O)NCC(C)(C)C)cc1C, Cc1ccc(S(=O)(=O)CC(=O)NC(C)(C)C)cc1 is higher in “% Inhibition @ 10 uM” value: -0.414% for the first, 3.49% for the second.

Compared with Cc1cccc(CNC(=O)C(C)n2ccc3cc(S(=O)(=O)N4CCCC4)ccc32)c1 (stereo not drawn), Cc1ccc(S(=O)(=O)Cc2ccc(C(=O)N3CCN(Cc4ccccc4)CC3)o2)cc1 is lower in “% Inhibition @ 10 uM” value: 0.931% for the first, -4.96% for the second.

Going from O=C(NC12CC3CC(CC(C3)C1)C2)c1cc2n(n1)C(C(F)(F)F)CC(c1cccs1)N2 (stereo not drawn) to Fc1ccc(N2CCN(C3CC4CCC3C4)CC2)cc1 (stereo not drawn), the “% Inhibition @ 10 uM” value rises from -0.0938% to 0.217%.

Compared with COc1ccc2[nH]c3c(c2c1)CCNC3C1CC=C(C)CC1 (stereo not drawn), Cc1nc2ccn(Cc3cccnc3)c(=O)c2cc1C(=O)NC1CCCCC1 is lower in “% Inhibition @ 10 uM” value: -3% for the first, -6.31% for the second.

First: CNc1ccc2cccc(Oc3ccc4cccc(O)c4n3)c2n1
Second: O=C(CCC(=O)Nc1cccc2ccccc12)Nc1cccc2ccccc12
The “% Inhibition @ 10 uM” value of the first is lower: -7.25% for the first, 0.324% for the second.

Compared with Cc1ccc(S(=O)(=O)n2nc(-c3ccco3)nc2NCc2ccccc2)cc1, O=C(NCc1ccccc1Cl)C(Cc1ccccc1)NS(=O)(=O)c1cccc2cccnc12 (stereo not drawn) is higher in “% Inhibition @ 10 uM” value: -11% for the first, -0.458% for the second.

Compared with CSc1ncc(Cl)c(C(=O)N2CCN(C(c3ccccc3)c3ccccc3)CC2)n1, Cc1nc2c(c(C)nn2-c2ccccc2)c(C)c1CCC(=O)N1CCN(Cc2ccccc2)CC1 is lower in “% Inhibition @ 10 uM” value: 0.362% for the first, -2.45% for the second.

Going from O=C(CN1C(=O)c2ccccc2Sc2ncccc21)N1CCN(C(=O)c2ccco2)CC1 to Cc1ccccc1CNC(=O)CN1C(=O)c2ccccc2S1(=O)=O, the “% Inhibition @ 10 uM” value rises from -4.16% to 1.64%.

Compared with CCc1ccc(-c2cc(C(F)(F)F)n3nccc3n2)s1, CCn1c(=O)sc2cccc(Cl)c21 is higher in “% Inhibition @ 10 uM” value: -2.54% for the first, 8.45% for the second.

Going from C=CCSc1nnc2c3sc4nc(N5CCOCC5)c5c(c4c3ncn12)CC(C)(C)OC5 to CCCCCn1c(C)nc2c(sc3nc4c(cc32)COC(C)(C)C4)c1=O, the “% Inhibition @ 10 uM” value rises from -1.82% to 0.673%.

First: COc1ccccc1/C=C(\NC(=O)c1ccccc1)C(=O)Nc1ccc(C)cc1C
Second: O=C(Cn1c2ccccc2n2nc(-c3cccs3)nc12)c1ccccc1
The “% Inhibition @ 10 uM” value of the first is lower: -2.51% for the first, 2.03% for the second.

Compared with C=CCn1c(SCC(=O)Nc2ccc(NC(C)=O)cc2)nc2sc3c(c2c1=O)CCC3, CC(C)n1cnc2cc(NC(=O)c3cccs3)ccc21 is lower in “% Inhibition @ 10 uM” value: 9.33% for the first, 7.58% for the second.

Going from COc1cc(OC)cc(C2=N/C(=C\c3ccc(C)cc3)C(=O)O2)c1 to COc1cc(/C=C/C(=O)NCCn2ccc3ccccc32)cc(OC)c1OC, the “% Inhibition @ 10 uM” value rises from -10% to -2.24%.

First: CC(CCc1ccccc1)NCc1ccc(C(=O)O)s1 (stereo not drawn)
Second: COC(=S)NC(=O)/C=C/c1ccccc1
The “% Inhibition @ 10 uM” value of the first is lower: -2.37% for the first, -0.833% for the second.

Going from CCc1nnc(NC(=O)c2cccc(Cl)c2Cl)s1 to Cc1c(C=O)c(C(=O)O)c(C)n1Cc1ccccc1Cl, the “% Inhibition @ 10 uM” value falls from 12% to -3.53%.

First: CCc1cc(=O)oc2c3c(c(Cl)cc12)OCN(Cc1ccccc1OC)C3
Second: CCCCOc1cccc(C2C(C(=O)c3ccc(C)o3)=C(O)C(=O)N2c2nccs2)c1 (stereo not drawn)
The “% Inhibition @ 10 uM” value of the first is lower: -4.39% for the first, 4.88% for the second.

Going from Cc1ccc(S(=O)(=O)c2nc(S(C)(=O)=O)sc2NCCCN(C)C)cc1 to CCCCC1CN(C)CCC1(O)c1ccccc1 (stereo not drawn), the “% Inhibition @ 10 uM” value rises from 1.15% to 4.04%.

With NC(=O)C1CCN(Cc2ccc(Cl)c(Cl)c2)CC1 the “% Inhibition @ 10 uM” value was -3.64%.
